In paper PMC4336329 (PLoS ONE, 2015):
Screen size: about 310,000 compounds; about 2,200 (0.71%) showed an effect of 50% or more. Effects have a minus sign here. The list shows a part of the results.

target: human ether-à-go-go-related gene (hERG) potassium channel (human, UniProt Q12809); test: primary screen, population patch clamp on CHO cells stably expressing hERG
Sequence (Q12809 whole entry, looked up): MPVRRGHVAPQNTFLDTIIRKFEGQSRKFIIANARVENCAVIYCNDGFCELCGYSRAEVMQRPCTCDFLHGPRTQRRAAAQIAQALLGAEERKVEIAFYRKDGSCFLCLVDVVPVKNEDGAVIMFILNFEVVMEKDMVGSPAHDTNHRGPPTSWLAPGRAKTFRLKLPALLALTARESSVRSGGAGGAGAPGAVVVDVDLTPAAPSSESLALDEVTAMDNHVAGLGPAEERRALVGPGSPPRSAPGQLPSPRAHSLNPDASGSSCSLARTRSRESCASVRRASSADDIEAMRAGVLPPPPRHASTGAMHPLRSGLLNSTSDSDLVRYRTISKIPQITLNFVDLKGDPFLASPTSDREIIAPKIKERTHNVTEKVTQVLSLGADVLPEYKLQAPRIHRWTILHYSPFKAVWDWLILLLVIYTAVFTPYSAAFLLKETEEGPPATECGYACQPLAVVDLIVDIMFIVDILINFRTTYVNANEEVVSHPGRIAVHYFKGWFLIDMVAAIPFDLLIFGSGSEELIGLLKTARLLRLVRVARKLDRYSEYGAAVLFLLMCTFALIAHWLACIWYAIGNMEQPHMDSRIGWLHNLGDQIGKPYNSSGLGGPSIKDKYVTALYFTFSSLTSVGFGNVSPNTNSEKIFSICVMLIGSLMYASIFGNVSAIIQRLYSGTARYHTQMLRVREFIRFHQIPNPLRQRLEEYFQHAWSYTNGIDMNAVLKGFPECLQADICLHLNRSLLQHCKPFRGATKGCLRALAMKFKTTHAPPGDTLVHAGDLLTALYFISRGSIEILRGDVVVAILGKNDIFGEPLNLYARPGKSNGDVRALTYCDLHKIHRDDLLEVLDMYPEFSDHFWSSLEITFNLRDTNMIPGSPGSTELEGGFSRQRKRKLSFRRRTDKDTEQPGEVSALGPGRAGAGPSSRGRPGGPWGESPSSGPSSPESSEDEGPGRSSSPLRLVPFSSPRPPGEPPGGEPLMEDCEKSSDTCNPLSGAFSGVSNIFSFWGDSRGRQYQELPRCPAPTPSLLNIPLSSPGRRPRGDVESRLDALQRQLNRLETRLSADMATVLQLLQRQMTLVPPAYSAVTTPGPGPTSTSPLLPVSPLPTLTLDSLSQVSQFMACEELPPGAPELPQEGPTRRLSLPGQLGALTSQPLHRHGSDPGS

Row | SMILES | hERG current change (%, negative = inhibition) at 1uM [%]
1 | N#C/C(=C\c1c[nH]c2ccccc12)c1nnc2n1CCCCC2 | -5.7
2 | COc1ccccc1CNC(=O)CNC(=O)[C@@H]1Cc2ccccc2CN1 | 3.47
3 | c1cncc(CNc2ncnc3ccc(-c4ccoc4)cc23)c1 | -6.62
4 | COC(=O)C1C2C=CC3(CN(c4ccc(Cl)c(F)c4)C(=O)C13)O2 (centres unmarked) | 7.22
5 | CC1CC(C)CN(C(=O)CSc2nnc(-c3ccc(F)cc3)o2)C1 (centres unmarked) | 0.0034
6 | O=C(OCCN1CCN(c2ncc(C(F)(F)F)cc2Cl)CC1)c1ccc(F)cc1 | 7.23
7 | CCN1CCN(c2cc(C)c3cc(NC(=O)c4cccc(OC)c4)ccc3n2)CC1 | 6.09
8 | O=C(c1cccc(C(F)(F)F)c1)C1CCCN(C(=O)C2CCOCC2)C1 (centres unmarked) | -16.6
9 | COC(=O)C1CN(C(=O)C(C)Oc2ccccc2F)c2ccccc2O1 (centres unmarked) | 16.6
10 | O=C(CN1C(=O)NC2(CCCC2)C1=O)Nc1cccc(-c2nnc3n2CCCCC3)c1 | 6.07
11 | CC1CCCC(NC(=O)C2c3ccccc3C(=O)N2Cc2cccs2)C1C (centres unmarked) | -2.85
12 | C=CCN1C(=O)C2C(C(=O)NCc3ccccc3)C3C=CC2(O3)C1C(=O)NC(C)(C)C (centres unmarked) | 4.61
13 | CCn1cnc2sc(C(=O)N3CCN(c4ccc(OC)cc4)CC3)c(C)c2c1=O | -1.71
14 | COc1ccc(Nc2nc3ccccc3n3nnnc23)cc1 | -8.69
15 | CCOC(=O)N1CCN(C(=O)CCN2C(=O)c3ccccc3S2(=O)=O)CC1 | 12.5
16 | COc1ccc(S(=O)(=O)NC2CCCC2)c(OC)c1 | 2.09
17 | COc1ccc(C2(C)NC(=O)N(CC(=O)Nc3ccc(-c4nc5ccc(C)cc5s4)cc3)C2=O)cc1 (centres unmarked) | 15.3
18 | CC(=O)C1=C(O)C(=O)N(c2ccc(O)cc2)C1c1cccc(F)c1 (centres unmarked) | 18.1
19 | COc1ccc(/C=C2\SC(=O)N(CC(=O)NCCC(C)C)C2=O)cc1OC | 1.8
20 | Cc1ccc(NC(=O)CN2C(=O)NC3(CCc4ccccc43)C2=O)cc1 (centres unmarked) | 13.6
21 | COCCNC(=O)c1ccc(CS(=O)(=O)c2ccc(Cl)cc2)o1 | 12.8
22 | CCOC(=O)c1c(NC(=O)c2ccc(C)cc2)sc2c1CC(C)(C)OC2 | 8.11
23 | Cc1nc(-c2ccc([N+](=O)[O-])cc2)c(-c2ccccc2)o1 | 12.8

Row | SMILES | hERG current change (%, negative = inhibition) at 1uM [%]
24 | COc1ccc(CNC(c2ccccc2)c2ccc(Cl)cc2)cc1 (centres unmarked) | 9.64
25 | Cc1nc2cc(C(F)(F)F)ccc2n1C | 2.26
26 | COc1ccc(/C=N/OC(=O)Nc2ccccc2OC)cc1 | 9.82
27 | CC(=O)N1CCN=C1SCc1cccc(Cl)c1 | 10.7
28 | O=C(NNC(=S)NCc1ccccc1)c1ccccc1OC(F)F | 9.1
29 | CCc1nnc(NC(=O)CSc2nnc(-c3c[nH]c4ccccc34)n2CCOC)s1 | -9.97
30 | COc1ccc(CCNC(=O)COC(=O)Cc2ccccc2)cc1 | 3.37
31 | Oc1[nH]c2ccc(Br)cc2c1N=NC(=S)N1CCOCC1 | 17.6
32 | O=C(COC(=O)c1cccnc1Cl)NCC1CCCO1 (centres unmarked) | -0.515
33 | Cn1nc(C(=O)NCc2cccnc2)c2ccccc2c1=O | 4.43
34 | CSC(=S)N/N=C(\C)c1ccc(Br)cc1 | 25.6
35 | CCOc1cc(C(=O)Nc2cc(=O)n(C)c(=O)n2C)cc(OCC)c1OCC | 7.23
36 | CC(=O)N1CCOc2ccc(S(=O)(=O)NCCc3ccccc3)cc21 | 13.2
37 | O=C(COC(=O)CN1C(=O)c2ccccc2C1=O)Nc1ccccc1[N+](=O)[O-] | 12
38 | C=C(C(=O)c1ccccc1)C(C)CC(=O)c1ccccc1 (centres unmarked) | 16
39 | Cc1cc(C)n(-c2nc3nonc3nc2Nc2cccc(C)c2C)n1 | 2.83
40 | Cc1cc(Cl)ccc1OCCCC(=O)N1CCN(C(=O)c2ccco2)CC1 | -59.1
41 | COc1cccc(NC(=O)Cn2c(=O)n(-c3ccccc3)c(=O)c3sccc32)c1 | 13.5
42 | NC(=O)COC(=O)/C=C/c1cccc(Br)c1 | 13
43 | Cc1ccc(O)c(CCc2ccccc2)n1.Cl | 16.2
44 | COc1cc(OC)c(CN2CCC(CO)(CCOc3ccccc3)CC2)c(OC)c1 | -87.7
45 | O=C1CCCN1C(=O)c1cncc(Br)c1 | -14.3
46 | OCCC1CN(Cc2ccccc2O)CCN1CCc1ccccc1 (centres unmarked) | 0.469

Row | SMILES | hERG current change (%, negative = inhibition) at 1uM [%]
47 | Clc1ccc(/C=C/c2nc3ccccc3[nH]2)cc1 | -1.63
48 | Cc1ccccc1OCC(=O)N/N=C/c1cn(C)c2ccccc12 | 10.3
49 | COc1ccccc1NC(=O)N(Cc1ccco1)Cc1cc2ccc(C)c(C)c2[nH]c1=O | 11.4
50 | CN(CC(=O)Nc1ccc(Cl)cc1)C(=O)Cc1c(F)cccc1Cl | 13.6
51 | Cn1ncc([N+](=O)[O-])c1C(=O)Nc1ccc(C2CCCCC2)cc1 | 13.7
52 | O=C(NCc1ccco1)C(=O)c1cn(CC(=O)N2CCCCCC2)c2ccccc12 | 7.29
53 | O=C(NC(=S)N(CCO)Cc1ccccc1)c1ccc(S(=O)(=O)N2CCCC2)cc1 | 11.6
54 | O=C(NCc1cnn(-c2ccc(F)cc2)c1)C1CCC(=O)N(C2CC2)C1 (centres unmarked) | 7.86
55 | C/C(=N\Nc1ccccn1)c1ccc(OC(F)F)cc1 | -39.1
56 | COc1ccc(CCNC(=O)CSc2ccc(-c3ccccc3)nn2)cc1OC | 10.6
57 | COc1ccc(NC(C)=O)cc1CP(=O)(c1ccccc1)c1ccccc1 | 15.6
58 | CS(=O)(=O)N(Cc1ccccc1)c1ccccc1C(=O)Nc1ccccc1C(=O)NCc1ccco1 | -1.7
59 | O=C(NCCCN1CCCC1)c1cccc(N2CCCC2=O)c1 | 12.3
60 | CC(=O)NC(NC(=S)Nc1ccc(N=Nc2ccccc2)cc1)C(Cl)(Cl)Cl (centres unmarked) | 15.4
61 | Clc1ccc(-c2cnc3n2CCC3)cc1 | -5.37
62 | O=C(O)c1c(N2CCCCC2)ccc([N+](=O)[O-])c1N1CCCCC1 | 13.3
63 | COc1ccc(C2(C(=O)Nc3nncs3)CCCC2)cc1 | -10
64 | CSc1ccc(CNCCN2CCOCC2)cc1.Cl | 7.48
65 | COc1ccc(OC)c(NC(=O)CSc2nc3nc(C)cc(C)n3n2)c1 | 3.13
66 | CSc1nncc(=O)[nH]1 | -2.03
67 | COc1cccc(CNc2cccc(C(F)(F)F)c2)c1O | 9.99
68 | Cc1nc2ccc(S(=O)(=O)NCC(=O)N3CCC(N4CCCCC4)CC3)cc2s1 | -16.4
69 | COC(=O)c1cccc(NC(=O)CCCOc2ccccc2)c1 | 0.591

Row | SMILES | hERG current change (%, negative = inhibition) at 1uM [%]
70 | S=C(NCC1CCCO1)n1nnc2ccccc21 (centres unmarked) | 7.09
71 | CC(=O)c1cccc(NC(=S)NC(=O)c2ccc(C)cc2)c1 | 8.71
72 | COc1ccc(N2CCC(CNC(=S)Nc3cc(C)cc(C)c3)C2)cc1 (centres unmarked) | 3.85
73 | CCNC(=O)N1C(CC(=O)OCC)C(=O)NC2CCCCC21 (centres unmarked) | 6.84
74 | CCn1c(NCc2ccccn2)nc2c1c(=O)n(C)c(=O)n2C | -1.03
75 | O=C1NC(=O)C(=O)N1 | 12
76 | Cc1cccc(NS(=O)(=O)c2cc3c4c(c2)C(C)C(=O)N4CCC3)c1 (centres unmarked) | 11
77 | CN(CC(=O)NCc1cccs1)S(=O)(=O)c1cccc2cccnc12 | 10.7
78 | COc1ccc(C2(CNC(=O)c3cccc([N+](=O)[O-])c3)CCCCC2)cc1OC | -4.58
79 | C/C(=N\OC(=O)NC1CCCCC1)c1sc(-c2ccccc2)nc1C | 4.66
80 | NC(=O)Cc1nc(-c2ccccc2)cs1 | 12
81 | Cc1ccc(C)c(OCc2nnc(N)s2)c1 | 11.1
82 | O=C1CCN(Cc2ccc([N+](=O)[O-])cc2)CCN1[C@H](CO)Cc1ccccc1 | -10.3
83 | COc1ccc(NC(=O)CSc2nc(C3CC3)nc3ccccc23)cc1 | 9.34
84 | CN(C)S(=O)(=O)n1cnc([C@H]2c3c(ncn3Cc3ccccc3)C[C@H]3COC(=O)[C@@H]32)c1 | 0.667
85 | CCCc1cc(=O)oc2cc(C)cc(OC(C)C(=O)N[C@@H](Cc3c[nH]c4ccccc34)C(=O)O)c12 (some centres unmarked) | 9.44
86 | CC(Sc1nn(-c2ccc(Cl)cc2)c(=S)s1)C(=O)NCC1CCCO1 (centres unmarked) | -1.11
87 | CCOc1cc(C(=O)OCC(=O)Nc2cc(C)on2)ccc1OCC(C)C | 3.6
88 | Nc1ccc(C(=O)OCC(=O)Nc2cc([N+](=O)[O-])ccc2F)cc1 | 0.969
89 | O=C1CCCN1CC(O)CS(=O)(=O)Cc1ccccc1Cl (centres unmarked) | 14.4
90 | NC(=O)c1ccsc1NC(=O)CN1C(=O)C2CC=CCC2C1=O (centres unmarked) | 10.3
91 | CCCN(CCC)S(=O)(=O)c1ccc(C(=O)O)cc1 | -9.32
92 | COc1cc(-c2nc3c4ccccc4nc(=S)n3[nH]2)cc(OC)c1OC | 24.5
